# The other results are listed elsewhere or left out.
# How the values were obtained:
# Assay in all cases: glycan array binding signal (z-score within array); higher = stronger binding
# Conditions in all cases: glycan notation: IUPAC condensed, linker removed
# [1] = molecular target: Gal(b1-4)GlcNAc(b1-3)Gal(b1-4)GlcNAc(b1-3)[Gal(b1-4)GlcNAc(b1-3)Gal(b1-4)GlcNAc(b1-6)]GalNAc
# Summary of the method: (§1)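 Columns mapping to the same glycan were averaged after glycan names were converted to IUPAC-condensed notation. The data come from 3228 arrays in the Consortium for Functional Glycomics database, limited to those with an available protein sequence. Binding is reported as a within-array Z-score averaged across arrays of one protein sequence and across linkers.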
# [2] = molecular target: Gal(b1-4)GlcNAc(b1-3)Gal(b1-4)GlcNAc(b1-6)[Gal(b1-3)]GalNAc
# Summary of the method: as §1
# [3] = molecular target: Gal(b1-4)GlcNAc(b1-3)Gal(b1-4)[Fuc(a1-3)]GlcNAc(b1-3)Gal(b1-4)[Fuc(a1-3)]GlcNAc
# Summary of the method: as §1
# [4] = molecular target: Gal(b1-4)GlcNAc(b1-3)GalNAc
# Summary of the method: as §1
# [5] = molecular target: Gal(b1-4)GlcNAc(b1-3)[Fuc(a1-3)GlcNAc(b1-6)]Gal(b1-4)Glc
# Summary of the method: as §1
# [6] = molecular target: Gal(b1-4)GlcNAc(b1-3)[Gal(b1-4)GlcNAc(b1-6)]Gal(b1-4)GlcNAc
# Summary of the method: as §1
# [7] = molecular target: Gal(b1-4)GlcNAc(b1-3)[GlcNAc(b1-6)]Gal(b1-4)GlcNAc
# Summary of the method: as §1
# [8] = molecular target: Gal(b1-4)GlcNAc(b1-6)Gal(b1-4)GlcNAc
# Summary of the method: as §1
# [9] = molecular target: Gal(b1-4)GlcNAc(b1-6)GalNAc
# Summary of the method: as §1
# [10] = molecular target: Gal(b1-4)GlcNAc(b1-6)[Gal(b1-3)]GalNAc
# Summary of the method: as §1
# [11] = molecular target: Gal(b1-4)GlcNAc(b1-6)[Gal(b1-4)GlcNAc(b1-3)]GalNAc
# Summary of the method: as §1
# Gal(b1-4)GlcNAc6P = molecular target: Gal(b1-4)GlcNAc6P
# Summary of the method: as §1
# Gal(b1-6)Gal = molecular target: Gal(b1-6)Gal
# Summary of the method: as §1
# Gal3S(b1-3)GalNAc = molecular target: Gal3S(b1-3)GalNAc
# Summary of the method: as §1
# Gal3S(b1-3)GlcNAc = molecular target: Gal3S(b1-3)GlcNAc
# Summary of the method: as §1
# [12] = molecular target: Gal3S(b1-3)[Fuc(a1-4)]GlcNAc
# Summary of the method: as §1
# Gal3S(b1-4)Glc = molecular target: Gal3S(b1-4)Glc
# Summary of the method: as §1
# Gal3S(b1-4)Glc6S = molecular target: Gal3S(b1-4)Glc6S
# Summary of the method: as §1
# Gal3S(b1-4)GlcNAc = molecular target: Gal3S(b1-4)GlcNAc
# Summary of the method: as §1
# [13] = molecular target: Gal3S(b1-4)[Fuc(a1-3)]Glc6S
# Summary of the method: as §1
# [14] = molecular target: Gal3S(b1-4)[Fuc(a1-3)]GlcNAc
# Summary of the method: as §1
# [15] = molecular target: Gal3S(b1-4)[Fuc(a1-3)]GlcNAc6S
# Summary of the method: as §1
# Gal3S4S(b1-4)GlcNAc = molecular target: Gal3S4S(b1-4)GlcNAc
# Summary of the method: as §1
# Gal3S6S(b1-4)GlcNAc = molecular target: Gal3S6S(b1-4)GlcNAc
# Summary of the method: as §1
# Gal3S6S(b1-4)GlcNAc6S = molecular target: Gal3S6S(b1-4)GlcNAc6S
# Summary of the method: as §1
# Gal4S(b1-4)GlcNAc = molecular target: Gal4S(b1-4)GlcNAc
# Summary of the method: as §1
# Gal4S6S(b1-4)GlcNAc = molecular target: Gal4S6S(b1-4)GlcNAc
# Summary of the method: as §1
# Gal6P(b1-4)GlcNAc = molecular target: Gal6P(b1-4)GlcNAc
# Summary of the method: as §1
# Gal6S(b1-3)GlcNAc = molecular target: Gal6S(b1-3)GlcNAc
# Summary of the method: as §1
# Gal6S(b1-3)GlcNAc6S = molecular target: Gal6S(b1-3)GlcNAc6S
# Summary of the method: as §1
# Gal6S(b1-4)Glc = molecular target: Gal6S(b1-4)Glc
# Summary of the method: as §1
# Gal6S(b1-4)Glc6S = molecular target: Gal6S(b1-4)Glc6S
# Summary of the method: as §1
# Gal6S(b1-4)GlcNAc = molecular target: Gal6S(b1-4)GlcNAc
# Summary of the method: as §1
# Gal6S(b1-4)GlcNAc6S = molecular target: Gal6S(b1-4)GlcNAc6S
# Summary of the method: as §1
# GalNAc(a1-3)Gal = molecular target: GalNAc(a1-3)Gal
# Summary of the method: as §1
# GalNAc(a1-3)GalNAc = molecular target: GalNAc(a1-3)GalNAc
# Summary of the method: as §1
# [16] = molecular target: GalNAc(a1-3)GalNAc(b1-3)Gal(a1-4)Gal(b1-4)Glc
# Summary of the method: as §1
binder,measurement,setting,value
"MGL (Homo sapiens), Q8IUN9 (protein) MTRTYENFQYLENKVKVQGFKNGPLPLQSLLQRLCSGPCHLLLSLGLGLLLLVIICVVGFQNSKFQRDLVTLRTDFSNFTSNTVAEIQALTSQGSSLEETIASLKAEVEGFKQERQAGVSELQEHTTQKAHLGHCPHCPSVCVPVHSEMLLRVQQLVQDLKKLTCQVATLNNNASTEGTCCPVNWVEHQDSCYWFSHSGMSWAEAEKYCQLKNAHLVVINSREEQNFVQKYLGSAYTWMGLSDPEGAWKWVDGTDYATGFQNWKPGQPDDWQGHGLGGGEDCAHFHPDGRWNDDVCQRPYHWVCEAGLGQTSQESH",glycan array binding signal (z-score),[1],-0.234
same,glycan array binding signal (z-score),[2],0.061
same,glycan array binding signal (z-score),[3],-0.243
same,glycan array binding signal (z-score),[4],-0.242
same,glycan array binding signal (z-score),[5],-0.248
same,glycan array binding signal (z-score),[6],-0.238
same,glycan array binding signal (z-score),[7],-0.254
same,glycan array binding signal (z-score),[8],-0.256
same,glycan array binding signal (z-score),[9],4.14
same,glycan array binding signal (z-score),[10],-0.21
same,glycan array binding signal (z-score),[11],-0.243
same,glycan array binding signal (z-score),Gal(b1-4)GlcNAc6P,-0.254
same,glycan array binding signal (z-score),Gal(b1-6)Gal,-0.266
same,glycan array binding signal (z-score),Gal3S(b1-3)GalNAc,-0.23
same,glycan array binding signal (z-score),Gal3S(b1-3)GlcNAc,-0.641
same,glycan array binding signal (z-score),[12],-0.237
same,glycan array binding signal (z-score),Gal3S(b1-4)Glc,-0.235
same,glycan array binding signal (z-score),Gal3S(b1-4)Glc6S,-0.239
same,glycan array binding signal (z-score),Gal3S(b1-4)GlcNAc,-0.247
same,glycan array binding signal (z-score),[13],-0.226
same,glycan array binding signal (z-score),[14],-0.237
same,glycan array binding signal (z-score),[15],-0.243
same,glycan array binding signal (z-score),Gal3S4S(b1-4)GlcNAc,-0.25
same,glycan array binding signal (z-score),Gal3S6S(b1-4)GlcNAc,-0.235
same,glycan array binding signal (z-score),Gal3S6S(b1-4)GlcNAc6S,-0.242
same,glycan array binding signal (z-score),Gal4S(b1-4)GlcNAc,-0.237
same,glycan array binding signal (z-score),Gal4S6S(b1-4)GlcNAc,-0.239
same,glycan array binding signal (z-score),Gal6P(b1-4)GlcNAc,-0.25
same,glycan array binding signal (z-score),Gal6S(b1-3)GlcNAc,-0.252
same,glycan array binding signal (z-score),Gal6S(b1-3)GlcNAc6S,-0.314
same,glycan array binding signal (z-score),Gal6S(b1-4)Glc,-0.247
same,glycan array binding signal (z-score),Gal6S(b1-4)Glc6S,-0.253
same,glycan array binding signal (z-score),Gal6S(b1-4)GlcNAc,-0.242
same,glycan array binding signal (z-score),Gal6S(b1-4)GlcNAc6S,-0.241
same,glycan array binding signal (z-score),GalNAc(a1-3)Gal,2.7
same,glycan array binding signal (z-score),GalNAc(a1-3)GalNAc,0.346
same,glycan array binding signal (z-score),[16],0.164
